Source: publication PMC4336329 (PLoS ONE, 2015)
In all, about 310,000 compounds went through this assay and about 14,000 (4.5%) showed an effect of 50% or more. Effects have a minus sign here. The list shows a part of the results.

molecular target: human ether-à-go-go-related gene (hERG) potassium channel (human, UniProt Q12809); assay: primary screen, population patch clamp on CHO cells stably expressing hERG
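Further: peak tail current of the secondary pulse compared with the same well before compound.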

Chain of human ether-à-go-go-related gene (hERG) potassium channel (Q12809 whole entry, looked up): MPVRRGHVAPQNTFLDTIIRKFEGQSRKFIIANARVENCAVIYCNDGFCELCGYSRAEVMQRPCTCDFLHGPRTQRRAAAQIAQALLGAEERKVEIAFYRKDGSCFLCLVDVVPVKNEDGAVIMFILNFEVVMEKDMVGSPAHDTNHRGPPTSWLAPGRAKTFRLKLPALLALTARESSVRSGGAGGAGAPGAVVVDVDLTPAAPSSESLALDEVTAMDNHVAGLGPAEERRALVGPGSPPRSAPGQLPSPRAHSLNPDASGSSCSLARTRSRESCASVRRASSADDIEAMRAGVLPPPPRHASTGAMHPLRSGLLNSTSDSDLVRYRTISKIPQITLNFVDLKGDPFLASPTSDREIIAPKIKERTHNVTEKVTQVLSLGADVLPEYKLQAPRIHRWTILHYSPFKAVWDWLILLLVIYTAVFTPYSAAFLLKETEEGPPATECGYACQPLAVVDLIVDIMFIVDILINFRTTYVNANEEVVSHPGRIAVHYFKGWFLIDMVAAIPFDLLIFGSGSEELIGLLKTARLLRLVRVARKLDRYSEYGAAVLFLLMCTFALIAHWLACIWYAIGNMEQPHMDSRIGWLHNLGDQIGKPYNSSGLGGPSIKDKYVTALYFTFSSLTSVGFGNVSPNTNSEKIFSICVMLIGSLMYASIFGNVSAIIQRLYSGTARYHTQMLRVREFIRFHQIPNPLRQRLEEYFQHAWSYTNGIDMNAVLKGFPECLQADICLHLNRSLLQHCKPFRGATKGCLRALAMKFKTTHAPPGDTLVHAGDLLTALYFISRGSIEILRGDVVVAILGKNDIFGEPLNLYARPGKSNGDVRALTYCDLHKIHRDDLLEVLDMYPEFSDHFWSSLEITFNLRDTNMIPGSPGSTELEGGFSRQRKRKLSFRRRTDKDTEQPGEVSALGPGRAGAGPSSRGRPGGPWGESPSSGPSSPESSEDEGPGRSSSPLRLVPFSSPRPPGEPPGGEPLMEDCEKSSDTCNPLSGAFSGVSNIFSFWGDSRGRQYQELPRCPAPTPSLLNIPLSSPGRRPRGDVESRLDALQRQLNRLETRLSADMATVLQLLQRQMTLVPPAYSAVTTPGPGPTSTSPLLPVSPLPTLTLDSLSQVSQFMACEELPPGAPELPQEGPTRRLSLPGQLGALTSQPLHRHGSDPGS

| SMILES | hERG current change (%, negative = inhibition) at 10uM |
| --- | --- |
| CC(C)n1cc(CN2CCCC(C(=O)Nc3ccccc3Oc3cccnc3)C2)cn1 (centres unmarked) | -42.4% |
| COCCNC(=O)c1csc(Nc2cccc3ccccc23)n1 | -35.9% |
| Cc1cc2ccccc2c(=O)n1CC(=O)NCC(=O)N1CCCC1 | 0.34% |
| CCCC1=[N+](CC(C)=O)CCn2c(C)ccc21.[Br-] | 20.1% |
| Cn1c(SCC(=O)N2CCc3ccccc3C2)nnc1-c1cccs1 | -45.1% |
| O=C(OC(C(=O)Nc1ccc(Cl)c(C(F)(F)F)c1)c1ccccc1)C1=COCCO1 (centres unmarked) | 19.1% |
| CCN(Cc1ccncc1)C(=O)c1cc(COc2ccc(C)c(C)c2)on1 | -69.5% |
| O=C(COc1ccccc1)N1CCN(S(=O)(=O)c2cccs2)CC1 | -31% |
| COc1ccc(-n2c(O)c(C(C)=NC3CC3)c(=O)[nH]c2=O)cc1 | 8.08% |
| COc1ccc([N+](=O)[O-])cc1NC(=O)Nc1ccccc1 | 10.3% |
| Clc1ccc(OCc2nnc(-c3ccccc3Br)o2)c(Cl)c1 | 8.14% |
| CCN1CCN(CCCNC(=O)c2ccccc2NC(=O)C2=C(C)OCCS2)CC1 | 1.11% |
| O=C(CN1C(=O)COc2ccccc21)NCCN1CCC(Cc2ccccc2)CC1 | -56.6% |
| O=C(Nc1c2c(nn1-c1ccc([N+](=O)[O-])cc1)CS(=O)(=O)C2)c1cccs1 | -20.5% |
| CCOCCCNC(=O)C(c1ccc(Cl)cc1)N(Cc1cccs1)C(=O)c1ccccn1 (centres unmarked) | -16.8% |
| COc1ccc(S(=O)(=O)N2CCC3(CC2)OCCN3S(=O)(=O)c2ccc(OC)cc2)cc1 | -24.1% |
| CCOc1ccc(S(=O)(=O)NCc2ccc3c(c2)OCO3)cc1NC(C)=O | 4.18% |
| Cc1ccc(C2(C)NC(=O)N(CC(=O)NNC(=O)c3ccccc3)C2=O)cc1 (centres unmarked) | 13.3% |
| COc1ccccc1C(=O)NCCC(=O)NCC1COc2ccccc2O1 (centres unmarked) | -0.0956% |

| SMILES | hERG current change (%, negative = inhibition) at 10uM |
| --- | --- |
| COC(=O)C1=C(C)NC(C)=C(C(=O)OC)C1C(=O)OCC(=O)c1ccc(F)cc1 | -7.46% |
| COc1ccc(C2c3[nH]c4ccccc4c3CCN2C(=O)c2cn3ccccc3n2)c(F)c1 (centres unmarked) | 2.65% |
| CCSc1nc2ccccc2n1CC(=O)N1CCCCC1 | -4.45% |
| COc1ccccc1CNC(=O)COC(=O)c1ccccc1-c1ccccc1 | 2.38% |
| CC1CN(C(=O)Nc2ccc(Br)cc2Cl)CC(C)O1 (centres unmarked) | 12.4% |
| COc1ccc(NC(=O)CN2CCN(C(=S)NC3CCCC3)CC2)cc1 | -39.1% |
| CCOC(=O)c1c(N)sc2c1CCC(C)C2 (centres unmarked) | -8.85% |
| O=C(CSc1nnnn1-c1ccccc1)NCC1(N2CCOCC2)CCCCC1 | -21.3% |
| O=C(c1ccccc1C(=O)N(c1ccccc1)c1ccccc1)N1CCCCC1 | 8.15% |
| O=C(CSc1nnc(-c2ccc3c(c2)OCCO3)o1)N1CCCC1 | 9.03% |
| Cc1ccc(-c2nc(-c3ccncc3)no2)c(Cl)c1 | 23.8% |
| CCN(CC)C(=S)Oc1c(Cl)cccc1Cl | 2.33% |
| CC1NC(=O)NC1CCCCCC(=O)Nc1ccc(F)cc1 (centres unmarked) | 10.4% |
| O=C(/C=C/c1c(F)cccc1Cl)c1ccc(O)cc1 | 1.1% |
| Cn1c(N)c(C(=O)COC(=O)c2ccc(Cl)c(S(=O)(=O)N3CCCCC3)c2)c(=O)n(C)c1=O | -25.5% |
| CCc1ccc(OCC(=O)NC2CC(C)(C)NC(C)(C)C2)cc1 | -0.165% |
| CC(CC(=O)Nc1nnc(C(C)(C)C)s1)c1ccccc1 (centres unmarked) | 12.2% |
| COc1cc(OC)c2ccc(=O)oc2c1C(CC(=O)N1CCCC1)c1ccc(N(C)C)cc1 (centres unmarked) | 10.2% |
| COc1ccc(CCn2c(C)cc(C(=O)COC(=O)c3cnccn3)c2C)cc1 | 4.81% |

| SMILES | hERG current change (%, negative = inhibition) at 10uM |
| --- | --- |
| Cn1c(NC(=O)c2ccc(F)cc2)nc2ccccc21 | 21.5% |
| COc1cc(C(=O)Nc2cc3c(cc2N2CCCCC2)n(C)c(=O)n3C)cc(OC)c1OC | 8.6% |
| CCOc1ccc(NC(=O)CCN2CCN(c3ccccc3F)CC2)cc1 | -20.2% |
| CCOC(=O)C1=C(C)NC(=O)NC1c1c(OC)ccc2ccccc12 (centres unmarked) | 12.9% |
| COCCn1c(-c2ccc(OC)cc2)c(-c2ccc(OC)cc2)oc1=O | -24.4% |
| COC(=O)Cn1c(=O)c2c(nc3n2CCCN3CCc2ccc(OC)c(OC)c2)n(C)c1=O | -22.8% |
| COc1cc(OC)cc(C(=O)NC(=S)NCCc2ccccc2)c1 | -22.4% |
| Cn1c2c(c(=O)n(C)c1=O)C(NS(=O)(=O)c1ccc(Cl)cc1)(C(F)(F)F)C(=O)N2 (centres unmarked) | -3.21% |
| COc1ccc(C2/C(=C(\O)c3ccc4c(c3)OCCO4)C(=O)C(=O)N2c2nc(C)c(C(C)=O)s2)cc1 (centres unmarked) | 19.2% |
| O=C(NCCN1CCCCC1)Nc1ccc(F)c(Cl)c1 | -33.9% |
| COC(=O)N1CCN(c2ccc(Cl)c(Cl)c2)CC1 | -1.86% |
| C=C1C(=O)O[C@@H]2C[C@@H](C)[C@@H]3C=CC(=O)[C@@]3(C)[C@@H](OC(C)=O)[C@H]12 | 8.19% |
| COc1ccc(OC(=O)Nc2ccccc2)cc1 | 1.4% |
| COC(=O)CN(c1ccccc1C)S(C)(=O)=O | 24.3% |
| CC(C)CCn1c(SCC(=O)Nc2ccccc2C(F)(F)F)nc2nccnc2c1=O | -21.6% |
| COCCNC(=O)c1ccc2ccccc2n1 | 0.29% |
| O=C(CCC(=O)N1CCOc2ccc(Cl)cc21)NCCN1CCOCC1 | 3.97% |
| Cc1cc(NS(=O)(=O)c2ccc(NC(=O)COc3cc(C)c(Cl)c(C)c3)cc2)no1 | 10.4% |
